Measured values as given in the supplement of paper PMC9446081.
Screen size: about 39,000 compounds; about 220 (0.56%) showed activity. The list shows a part of the results.

Tested on: Escherichia coli K-12 BW25113
Experiment: relative growth (OD600 normalised to plate interquartile mean) (fraction); higher = less growth inhibition, active = 0.2 or less
Settings: 50 µM; LB; incubation time: overnight (16-24 h)
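Further: static incubation at 37 °C against the wild-type strain, values averaged over two biological replicates.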

Row | Structure (SMILES) | relative growth
1 | COc1ccc(C[C@@H]2c3cc(OC)c(OC)cc3CC[N@+]2(C)CCC(=O)OCCCCCOC(=O)CC[N@@+]2(C)CCc3cc(OC)c(OC)cc3[C@H]2Cc2ccc(OC)c(OC)c2)cc1OC | inactive: 0.908
2 | c1ccc(-c2cccs2)nc1 | inactive: 1.01
3 | N#CCC(=O)N1CCSCC1 | inactive: 1.02
4 | C[C@@H]1CN([C@@H](C)CO)C(=O)c2cccc(NC(=O)Nc3ccc4c(c3)OCO4)c2O[C@H]1CN(C)S(C)(=O)=O | inactive: 1.01
5 | C[C@@H]1CN([C@@H](C)CO)C(=O)c2cccc(NC(=O)c3cnccn3)c2O[C@@H]1CN(C)C(=O)Nc1ccc(F)cc1 | inactive: 0.954
6 | Cc1cc(-c2ccc3ccccc3n2)nc2ccc3ccccc3c12 | inactive: 1.02
7 | C[C@H](CO)N1C[C@H](C)[C@@H](CN(C)C(=O)Nc2ccccc2)Oc2c(NC(=O)Nc3cccc4ccccc34)cccc2C1=O | inactive: 1.07
8 | NCc1cccc(-c2ccccc2)c1 | inactive: 0.973
9 | C[C@H]1CN([C@@H](C)CO)C(=O)c2cccc(NC(=O)c3cnccn3)c2O[C@H]1CN(C)CC1CCCCC1 | inactive: 0.995
10 | C[C@H](CO)N1C[C@H](C)[C@H](CN(C)S(=O)(=O)c2ccc3c(c2)OCCCO3)OCc2cn(nn2)CCCC1=O | inactive: 1.03
11 | CS(=O)(=O)N(CCC#N)Cc1ccco1 | inactive: 1
12 | C[C@@H]1CCCCO[C@@H](CN(C)CC2CCCCC2)[C@@H](C)CN([C@@H](C)CO)C(=O)c2cc(N(C)C)ccc2O1 | inactive: 1
13 | CO[C@@H]1CN(C)C(=O)c2ccc(NC(=O)Nc3ccccc3F)cc2OC[C@@H](C)N(CCC(F)(F)F)C[C@H]1C | inactive: 1.02
14 | C[C@@H]1CN([C@H](C)CO)C(=O)c2cc(NS(=O)(=O)c3ccccc3)ccc2O[C@@H](C)CCCCO[C@@H]1CN(C)C(=O)c1ccccc1 | inactive: 1
15 | C[C@H]1CN([C@@H](C)CO)S(=O)(=O)c2ccc(/C=C/c3ccccc3)cc2O[C@H]1CN(C)C(=O)CN1CCOCC1 | inactive: 1.04
16 | Cc1noc(C)c1NC(=O)Nc1ccc2c(c1)C(=O)N([C@@H](C)CO)C[C@H](C)[C@H](CN(C)CC1CCCCC1)OCCCC[C@H](C)O2 | inactive: 0.983
17 | C[C@@H]1CN([C@@H](C)CO)C(=O)Cc2cc(NS(=O)(=O)c3cccs3)ccc2O[C@H]1CN(C)S(=O)(=O)c1cn(C)cn1 | inactive: 1.02
18 | CCOc1cc2ncc(C#N)c(Nc3ccc(OCc4ccccn4)c(Cl)c3)c2cc1NC(=O)/C=C/CN(C)C | inactive: 1.01
19 | CC(C)NC(=O)Nc1ccc2c(c1)C(=O)N([C@H](C)CO)C[C@H](C)[C@@H](CN(C)C(=O)C1CCCCC1)OCCCC[C@H](C)O2 | inactive: 0.999
20 | Cc1noc(C)c1S(=O)(=O)Nc1ccc2c(c1)CC(=O)N([C@H](C)CO)C[C@@H](C)[C@H](CN(C)S(=O)(=O)c1ccc(Cl)cc1)O2 | inactive: 1

Row | Structure (SMILES) | relative growth
21 | COc1ccc(S(=O)(=O)Nc2ccc3c(c2)CC(=O)N([C@@H](C)CO)C[C@H](C)[C@H](CN(C)S(=O)(=O)c2ccc(F)cc2)O3)cc1 | inactive: 0.998
22 | NCc1ccnc(N2CCCC2)c1 | inactive: 1.01
23 | C[C@H]1CN([C@@H](C)CO)C(=O)c2cc(NC(=O)Nc3ccc(C(F)(F)F)cc3)ccc2O[C@@H]1CN(C)Cc1ccc(Oc2ccccc2)cc1 | inactive: 0.987
24 | COCCOC(=O)N1C(=O)[C@@]2(c3cc(C#Cc4ccc(OC)cc4)ccc31)[C@H](C(=O)N1CCCCCCC1)[C@H]1C(=O)O[C@H](c3ccccc3)[C@H](c3ccccc3)N1[C@@H]2c1ccc(OCCO)cc1 | inactive: 1.07
25 | O=C(O)CC[C@H]1CCC(=O)N1 | inactive: 0.924
26 | CN1CCN(C(=O)C[C@H]2C=C[C@@H](NC(=O)c3ccc4c(c3)OCO4)[C@@H](CO)O2)CC1 | inactive: 0.955
27 | CNC(=O)C[C@H]1CC[C@@H]2[C@H](COC[C@H](O)CN2C(=O)Nc2ccc3c(c2)OCO3)O1 | inactive: 0.994
28 | C[C@H](CO)N1C[C@H](C)[C@@H](CN(C)CC2CC2)OCCCC[C@H](C)Oc2ccc(NS(=O)(=O)c3ccc(Cl)cc3)cc2C1=O | inactive: 0.988
29 | C[C@H](CO)N1C[C@H](C)[C@H](CN(C)Cc2ccc3c(c2)OCO3)Oc2ccc(NC(=O)C3CC3)cc2C1=O | inactive: 0.959
30 | O=C(C[C@@H]1C[C@@H]2c3cc(NS(=O)(=O)c4ccccc4)ccc3O[C@@H]2[C@@H](CO)O1)NC1CCCCC1 | inactive: 0.998
31 | COc1ccc(S(=O)(=O)Nc2ccc3c(c2)C(=O)N([C@@H](C)CO)C[C@@H](C)[C@H](CN(C)S(=O)(=O)c2ccccc2)O3)cc1 | inactive: 1.01
32 | C[C@H]1CCCCO[C@@H](CN(C)C(=O)Nc2ccc(C(F)(F)F)cc2)[C@@H](C)CN([C@@H](C)CO)C(=O)c2cc(NS(=O)(=O)c3ccccc3)ccc2O1 | inactive: 1.04
33 | C[C@H]1CN([C@@H](C)CO)C(=O)c2cccc(NC(=O)C3CCOCC3)c2O[C@H]1CN(C)S(=O)(=O)c1cn(C)cn1 | inactive: 0.99
34 | C[C@@H]1CCCCO[C@H](CN(C)C(=O)Nc2ccc(F)cc2)[C@H](C)CN([C@H](C)CO)C(=O)c2cc(NS(=O)(=O)c3cccs3)ccc2O1 | inactive: 1.02
35 | Cc1noc(C)c1NC(=O)Nc1ccc2c(c1)C(=O)N([C@@H](C)CO)C[C@H](C)[C@H](CN(C)Cc1ccc(Oc3ccccc3)cc1)O2 | inactive: 0.986
36 | C[C@@H]1CN([C@H](C)CO)C(=O)c2cc(NC(=O)c3ccncc3)ccc2O[C@@H]1CN(C)S(=O)(=O)c1cn(C)cn1 | inactive: 0.964
37 | C[C@H](CO)N1C[C@H](C)[C@H](CN(C)C(=O)CCCN(C)C)OCCCC[C@H](C)Oc2ccc(NS(C)(=O)=O)cc2C1=O | inactive: 0.988
38 | C[C@@H]1CN([C@H](C)CO)C(=O)Cc2cc(NC(=O)Nc3ccccc3)ccc2O[C@H]1CN(C)C(=O)Nc1ccc(C(F)(F)F)cc1 | inactive: 1.01
39 | C[C@@H]1CN([C@@H](C)CO)C(=O)c2cc(NC(=O)c3ccncc3)ccc2O[C@@H](C)CCCCO[C@H]1CN(C)C(=O)Nc1ccc(F)cc1 | inactive: 0.974
40 | Cc1cc(C(=O)Nc2cccc3c2O[C@@H](CN(C)Cc2ccncc2)[C@H](C)CN([C@@H](C)CO)C3=O)n(C)n1 | inactive: 0.992

Row | Structure (SMILES) | relative growth
41 | COc1ccc(NC(=O)N(C)C[C@@H]2OCCCC[C@H](C)Oc3ccc(NS(=O)(=O)c4cccs4)cc3C(=O)N([C@@H](C)CO)C[C@@H]2C)cc1 | inactive: 1.02
42 | COc1ccc2nc(S(=O)Cc3ncc(C)c(OC)c3C)[nH]c2c1 (stereo not given) | inactive: 1.06
43 | Cc1ccc(S(=O)(=O)Nc2cccc3c2O[C@@H](CN(C)S(=O)(=O)c2cccs2)[C@@H](C)CN([C@@H](C)CO)C3=O)cc1 | inactive: 1.01
44 | CC(C)NC(=O)Nc1ccc2c(c1)C(=O)N([C@H](C)CO)C[C@@H](C)[C@H](CN(C)C(=O)C1CCCCC1)OCCCC[C@H](C)O2 | inactive: 0.987
45 | C[C@H](CO)N1C[C@H](C)[C@@H](CN(C)C(=O)NC2CCCCC2)OCCCC[C@H](C)Oc2ccc(NS(=O)(=O)c3ccccc3)cc2C1=O | inactive: 1.02
46 | C[C@@H]1CN([C@@H](C)CO)S(=O)(=O)c2ccc(C#CCN(C)C)cc2O[C@H]1CN(C)S(=O)(=O)c1cccc(F)c1 | inactive: 1.02
47 | COc1ccc([Si](C)(C)[C@@H]2[C@@H](CCO)O[C@]3(C(=O)N(Cc4ccc(N(C=O)c5ccccc5)cc4)c4ccccc43)[C@H]2C)cc1 | inactive: 1.04
48 | C[C@@H]1CN([C@@H](C)CO)C(=O)Cc2cc(NC(=O)CCC(F)(F)F)ccc2O[C@@H]1CN(C)S(=O)(=O)c1ccccc1 | inactive: 0.989
49 | CC(CS)C(=O)N1CCCC1C(=O)O (stereo not given) | inactive: 1.05
50 | CCCCCS(=O)(=O)CCCCCCCCCCn1c(-c2ccc(O)cc2)c(C)c2cc(O)ccc21 | inactive: 1.03
51 | C[C@@H]1CN([C@@H](C)CO)C(=O)Cc2cc(NC(=O)Nc3ccc(C(F)(F)F)cc3)ccc2O[C@@H]1CN(C)Cc1ccc(Cl)c(Cl)c1 | inactive: 1.02
52 | C[C@@H]1CCCCO[C@@H](CN(C)Cc2ccncc2)[C@@H](C)CN([C@H](C)CO)C(=O)c2cc(NC(=O)Nc3ccc(F)cc3)ccc2O1 | inactive: 0.999
53 | C[C@@H]1CN([C@H](C)CO)C(=O)c2cc(NC(=O)NC3CCCCC3)ccc2O[C@@H](C)CCCCO[C@@H]1CN(C)C(=O)Nc1ccccc1 | inactive: 1
54 | Cc1ccc(S(=O)(=O)N(C)C[C@@H]2Oc3ccc(NC(=O)Nc4ccc(C(F)(F)F)cc4)cc3CC(=O)N([C@H](C)CO)C[C@H]2C)cc1 | inactive: 1.03
55 | COc1ccccc1CNC(=O)C[C@@H]1C[C@H]2c3cc(NC(=O)NC4CCCC4)ccc3O[C@H]2[C@@H](CO)O1 | inactive: 1.01
56 | C[C@@H]1CN([C@H](C)CO)C(=O)c2cccc(NC(=O)c3ccncc3)c2O[C@H]1CN(C)S(=O)(=O)c1ccc(F)cc1 | inactive: 1.02
57 | COc1ccc(S(=O)(=O)Nc2cccc3c2O[C@H](CN(C)Cc2ccc(-c4ccccc4)cc2)[C@H](C)CN([C@H](C)CO)C3=O)cc1 | inactive: 1.04
58 | C[C@@H]1CCCCO[C@@H](CN(C)Cc2ccc(Cl)c(Cl)c2)[C@H](C)CN([C@@H](C)CO)C(=O)c2cc(NC(=O)Nc3ccc4c(c3)OCO4)ccc2O1 | inactive: 0.985
59 | CCO[C@H]1OC(C(N)=O)=C[C@@H](C)[C@@H]1CCCO | inactive: 1.01
60 | C[C@@H]1CN([C@H](C)CO)C(=O)Cc2cc(NC(=O)C3CC3)ccc2O[C@H]1CN(C)S(=O)(=O)c1ccccc1 | inactive: 1.02
